About 2,200 (0.71%) of roughly 310,000 compounds showed an effect of 50% or more. Effects have a minus sign here. The list shows a part of the results.
molecular target: human ether-à-go-go-related gene (hERG) potassium channel (human, UniProt Q12809); assay: primary screen, population patch clamp on CHO cells stably expressing hERG
Sequence (Q12809 whole entry, looked up): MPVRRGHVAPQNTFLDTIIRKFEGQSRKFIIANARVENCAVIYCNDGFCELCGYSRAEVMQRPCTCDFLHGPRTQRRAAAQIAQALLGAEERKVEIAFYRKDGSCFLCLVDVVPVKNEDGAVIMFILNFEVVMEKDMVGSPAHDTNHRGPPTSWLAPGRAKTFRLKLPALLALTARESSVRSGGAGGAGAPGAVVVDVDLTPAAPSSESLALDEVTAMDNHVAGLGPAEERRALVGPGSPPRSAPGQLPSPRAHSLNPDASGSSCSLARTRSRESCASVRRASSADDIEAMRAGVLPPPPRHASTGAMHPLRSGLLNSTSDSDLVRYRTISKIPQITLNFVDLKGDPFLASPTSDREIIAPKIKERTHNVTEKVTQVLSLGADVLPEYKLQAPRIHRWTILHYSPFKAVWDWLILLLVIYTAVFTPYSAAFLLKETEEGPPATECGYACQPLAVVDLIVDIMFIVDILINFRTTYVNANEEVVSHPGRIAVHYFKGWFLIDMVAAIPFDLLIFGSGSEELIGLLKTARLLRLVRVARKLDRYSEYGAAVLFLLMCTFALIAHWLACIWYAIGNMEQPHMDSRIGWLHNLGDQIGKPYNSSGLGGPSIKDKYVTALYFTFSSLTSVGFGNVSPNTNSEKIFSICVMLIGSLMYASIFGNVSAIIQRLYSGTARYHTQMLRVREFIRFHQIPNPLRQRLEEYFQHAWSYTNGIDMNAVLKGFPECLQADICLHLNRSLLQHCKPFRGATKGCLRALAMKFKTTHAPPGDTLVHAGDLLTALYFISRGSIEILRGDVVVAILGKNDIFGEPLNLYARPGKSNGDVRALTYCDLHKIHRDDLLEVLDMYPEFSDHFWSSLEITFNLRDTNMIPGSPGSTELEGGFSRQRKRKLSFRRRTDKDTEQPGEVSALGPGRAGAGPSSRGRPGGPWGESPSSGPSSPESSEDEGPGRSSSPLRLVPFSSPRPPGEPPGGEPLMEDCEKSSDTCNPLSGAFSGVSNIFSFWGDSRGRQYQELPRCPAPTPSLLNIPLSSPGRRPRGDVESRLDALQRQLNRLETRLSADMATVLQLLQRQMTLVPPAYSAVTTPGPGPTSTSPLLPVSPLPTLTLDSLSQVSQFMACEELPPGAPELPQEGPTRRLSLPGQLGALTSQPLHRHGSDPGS

Row | Structure (SMILES) | hERG current change (%, negative = inhibition) at 1uM [%]
1 | Cc1ccc(OCc2ccoc2C(=O)O)cc1C | 6.17
2 | CCOc1ccc(NC(=O)c2ccc(N3CC4CC(C3)c3cccc(=O)n3C4)c(N)c2)cc1 (centres unmarked) | -1.99
3 | CCC(CC)NC(=O)c1cc([N+](=O)[O-])ccc1N1CCOCC1 | 15.6
4 | Cc1ccc(C2=NN(CCC(=O)N3CCC4(CC3)OCCO4)C(=O)CC2)cc1 | -27.5
5 | CC(=O)Nc1ccc(S(=O)(=O)NCc2ccc3[nH]c(C)cc3c2)cc1 | 17.8
6 | COc1cccc(NC(=O)CN(C)C(=O)c2cc(-c3cccc(Br)c3)nc3ccccc23)c1 | 12.3
7 | COc1cccc(C2Nc3ccccc3C(=O)N2Cc2ccccc2)c1 (centres unmarked) | 9.32
8 | O=C(Nc1ccc(C(=O)N2CCCC2)cc1)c1ccccc1F | -3.03
9 | O=C1CCC([N+](=O)[O-])C(c2ccccc2Cl)N1 (centres unmarked) | 9.07
10 | CC(C)c1ccc(NC(=O)CCCC(=O)NCCc2ccccc2)cc1 | 7.18
11 | Cc1cc(C)cc(NS(=O)(=O)c2ccc3c(c2)C(C)(C)C(=O)N3C)c1 | 5.31
12 | C=CCOc1ccccc1CN1CCC(n2nccc2NC(=O)C2CCOC2)CC1 (centres unmarked) | 4.77
13 | COC(=O)c1cccc(-c2noc(-c3ccccc3F)n2)c1 | 16.2
14 | CC(=O)Nc1nnc(/C=C/c2cccc([N+](=O)[O-])c2)s1 | 13.4
15 | CCOC(=O)c1c(-c2ccc(C)s2)csc1N | 12.3
16 | O=C(Nc1nc2ccccc2c(=O)s1)c1ccc(F)cc1Cl | 15.8
17 | CCOC(=O)c1c(CN2CCN(CC#N)CC2)n(C)c2cc(Br)c(OC)cc12 | 16.8
18 | O=C(CN1CCOCC1)Nc1ccc(F)cc1 | 9.75
19 | COc1ccccc1NS(=O)(=O)c1ccc2oc(SCc3ccc(C#N)cc3)nc2c1 | 6.27

Row | Structure (SMILES) | hERG current change (%, negative = inhibition) at 1uM [%]
20 | Br.CCCSc1ccc2nc(-c3ccccc3)cn2c1 | 13.4
21 | O=S(=O)(NCC1CC1)c1ccc(F)c(Cl)c1 | 4.94
22 | N#CC1(c2nc3ccccc3[nH]2)CC1c1ccc2c(c1)OCO2 (centres unmarked) | 11
23 | Cc1sc(NC(=O)c2ccccc2)c(C(=O)NCCN(C)C)c1C | 5.04
24 | Nc1nc(SCCOc2ccccc2)n[nH]1 | 8.36
25 | Cc1[nH]c(=O)[nH]c(=O)c1NC(=O)c1ccc(OC(C)C)cc1 | -0.315
26 | CCO[C@H]1OC(C(=O)NCc2nc3ccccc3[nH]2)=C[C@@H](C2CCCCC2)[C@@H]1CCCO | 16.3
27 | Cc1ccc(C)c(-n2cc(CNCCc3cnccn3)c(-c3ccccc3)n2)c1 | -20.3
28 | CCOc1ccc(CN2CCN(c3ncnc4scc(-c5ccccc5)c34)CC2)cc1 | -6.88
29 | C=CCC1(C(=O)N(C)Cc2ccccc2)CCN(C(=O)OC(C)(C)C)CC1 | 11.2
30 | Cn1c2ccccc2n2c(=O)c(=O)n(CC(=O)N3CCCc4ccccc43)nc12 | -1.27
31 | CCOc1cc(/C=C2\C(=N)N3N=C(C)SC3=NC2=O)ccc1OCCOc1ccccc1 | 8.11
32 | COC(=O)C1=C(c2ccccc2OCc2ccccc2)C[C@@H]2CC[C@H]1N2C(=O)NCCN1CCOCC1 | 11.4
33 | CC(=O)Nc1ccc(OCC(=O)NCc2ccc3c(c2)OCO3)cc1 | 8.6
34 | Oc1ccc(Br)cc1CN1CCCCCCC1 | -5.23
35 | O=C(COc1ccc(Br)cc1F)N1CCN(c2ncccn2)CC1 | -8.46
36 | CC(C)c1ccc2c(c1)C(c1ccc(N3CCOCC3)cc1)=NNC(c1cccs1)=N2 | -8.1
37 | COc1c(C)cc(C(=O)C2CCCN(S(=O)(=O)N(C)C)C2)cc1C (centres unmarked) | -24.3
38 | COc1cccc(N2CCN(C(=O)c3cccc(NC4=NC5CS(=O)(=O)CC5S4)c3)CC2)c1 (centres unmarked) | 5.77

Row | Structure (SMILES) | hERG current change (%, negative = inhibition) at 1uM [%]
39 | COc1ccc(C(=O)/C=C/Nc2ccc([N+](=O)[O-])cc2)cc1 | 13.5
40 | C=CCn1c(SCC(=O)Nc2nc(C)cs2)nnc1C(C)NC(=O)c1ccccc1Cl (centres unmarked) | 8.11
41 | Cc1ccc(C)c(S(=O)(=O)N2CCCC2CNC(=O)C(=O)NCCN2CCOCC2)c1 (centres unmarked) | 16.9
42 | COc1cccc(OC)c1OCCN(C)C.O=C(O)C(=O)O | -3.49
43 | O=C(COc1cc(F)ccc1[N+](=O)[O-])Nc1ccc2c(c1)OCO2 | 4.29
44 | O=c1c2ccc(Cl)cc2nc2n1CC/C2=C\c1cccc(O)c1 | 7.81
45 | Nc1nc(SCc2ccc(Cl)cc2)[nH]c(=O)c1-c1ccccc1 | 5.31
46 | CCOc1nc(Nc2ccc(F)cc2)nc(N2CCN(c3ccc(OC)cc3)CC2)n1 | -13.7
47 | O=C1C2C3c4ccccc4C(c4ccccc43)[C@@H]2C(=O)N1c1ccccn1 (some centres unmarked) | 8.05
48 | COc1ccc(-n2cc3ccc([N+](=O)[O-])cc3n2)cc1 | 15.4
49 | CC(C)(C)c1ccc(-c2nc3cc(N)ccc3o2)cc1 | 16.6
50 | Cc1cc(C)n(-c2nc(SCC(=O)N3CCCC3)c3c4c(sc3n2)CCCC4)n1 | 0.887
51 | COc1ccc(CCNS(=O)(=O)c2cccc3nsnc23)cc1OC | -2.28
52 | O=C(O)c1cccc(NC(=O)c2ccc(S(=O)(=O)c3ccccc3)cc2)c1 | 5.52
53 | COc1cccc(CN(C)C(=O)c2cc(-c3cccs3)nc3ccccc23)c1 | -0.684
54 | O=C(O)c1cc(O)c2c(c1)C(=O)c1cccc(O)c1C2=O | 14.1
55 | Cc1nnc(SCC(=O)Nc2ccccc2NC(=O)CSc2nnc(C)s2)s1 | 12.2
56 | COc1ccccc1N(C)S(=O)(=O)c1ccc(C(=O)Nc2nccs2)cc1 | -11.4
